The whole screen tested about 310,000 compounds, of which about 14,000 (4.5%) showed an effect of 50% or more. Effects have a minus sign here. Some of the results follow.
target: human ether-à-go-go-related gene (hERG) potassium channel (human, UniProt Q12809); assay: primary screen, population patch clamp on CHO cells stably expressing hERG
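Also: peak tail current of the secondary pulse compared with the same well before compound.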

Chain of human ether-à-go-go-related gene (hERG) potassium channel (Q12809 whole entry, looked up): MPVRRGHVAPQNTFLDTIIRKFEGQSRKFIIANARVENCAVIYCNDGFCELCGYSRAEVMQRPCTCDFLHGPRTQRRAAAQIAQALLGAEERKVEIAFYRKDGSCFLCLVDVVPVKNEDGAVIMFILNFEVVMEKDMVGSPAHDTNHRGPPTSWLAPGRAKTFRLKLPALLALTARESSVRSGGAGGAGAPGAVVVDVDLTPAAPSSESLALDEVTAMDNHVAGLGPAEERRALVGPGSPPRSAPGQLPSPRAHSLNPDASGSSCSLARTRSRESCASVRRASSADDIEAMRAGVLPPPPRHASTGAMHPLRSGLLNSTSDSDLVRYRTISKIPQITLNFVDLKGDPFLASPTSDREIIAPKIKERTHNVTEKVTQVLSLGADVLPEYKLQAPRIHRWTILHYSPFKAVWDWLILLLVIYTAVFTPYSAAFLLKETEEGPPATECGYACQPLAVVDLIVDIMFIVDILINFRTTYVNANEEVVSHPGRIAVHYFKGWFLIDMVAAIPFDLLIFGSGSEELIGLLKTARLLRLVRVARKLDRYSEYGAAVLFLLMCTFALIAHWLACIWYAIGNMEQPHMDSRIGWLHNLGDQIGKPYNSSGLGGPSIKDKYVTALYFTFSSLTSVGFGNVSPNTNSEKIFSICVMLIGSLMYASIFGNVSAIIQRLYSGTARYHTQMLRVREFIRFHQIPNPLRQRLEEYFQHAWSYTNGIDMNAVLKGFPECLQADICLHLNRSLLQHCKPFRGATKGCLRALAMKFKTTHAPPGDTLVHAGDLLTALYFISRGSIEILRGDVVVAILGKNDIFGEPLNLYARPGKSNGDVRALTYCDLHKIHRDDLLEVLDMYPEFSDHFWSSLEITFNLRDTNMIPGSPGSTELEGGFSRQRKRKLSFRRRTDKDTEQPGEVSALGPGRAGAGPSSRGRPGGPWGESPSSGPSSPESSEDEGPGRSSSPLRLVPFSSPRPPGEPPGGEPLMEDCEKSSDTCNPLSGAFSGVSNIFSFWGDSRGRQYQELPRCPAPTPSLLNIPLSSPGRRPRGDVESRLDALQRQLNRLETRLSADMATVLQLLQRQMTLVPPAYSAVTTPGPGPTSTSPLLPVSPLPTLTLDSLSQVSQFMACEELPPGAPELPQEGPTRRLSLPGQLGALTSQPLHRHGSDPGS

Structure (SMILES) | hERG current change (%, negative = inhibition) at 10uM
COc1cccc2cc(CC(=O)c3ccccc3)c(=O)oc12 | 13.6%
COc1cc2[nH]c(=O)n(Cc3ccc(C(=O)NCC4CCCO4)cc3)c(=O)c2cc1OC (centres unmarked) | -2.65%
C=CCOC(=O)C(C#N)c1nc2ccccc2nc1N1CCN(Cc2ccc3c(c2)OCO3)CC1 (centres unmarked) | -35.8%
CC1=C/C(=C\c2ccc(Br)o2)C(=O)O1 | 17.4%
CCCCCOc1ccc(CN2CCOCC2)cc1Cl.Cl | -9.97%
CCN1CCN(S(=O)(=O)c2ccc(C(C)(C)C)cc2)CC1 | 8.06%
O=[N+]([O-])c1cccc(Oc2cnccn2)c1 | 16.4%
O=C(C1CCCO1)N(c1ccc(F)cc1)C1C=CS(=O)(=O)C1 (centres unmarked) | 22.6%
O=C(CN1C(=O)COc2ccccc21)Nc1ccc(F)cc1 | 8.36%
COCCn1c(SCC(=O)c2ccc(F)cc2)nnc1C(C)C | -1.86%
COc1ccc(C(C)NC(=O)C2CCCC2)cc1OC (centres unmarked) | 19.9%
CC(=O)c1cccc(NC(=O)CSc2n[nH]c(-c3ccncc3)n2)c1 | 10.5%
O=C(Cn1c(=O)sc2ccccc21)Nc1ccc2c(c1)OCCO2 | 6.78%
CSc1ccc(C(=S)N2CCCCCC2)cc1 | 7.33%
Nc1nc(SCc2nc3sc4c(c3c(=O)[nH]2)CCCC4)n[nH]1 | 8.47%
Nc1ccc(S(=O)(=O)Nc2ccc(S(N)(=O)=O)cc2)cc1 | 2.96%
CC1CCCC/C1=N\Nc1ccc(S(N)(=O)=O)cc1[N+](=O)[O-] (centres unmarked) | 11.4%
Cc1cc(C(=O)N/N=C/c2ccc(N3CCOCC3)cc2)c(C)o1 | 20.3%
Cc1cccc(CS(=O)(=O)Cc2ccc(C(=O)NCc3ccco3)o2)c1 | -7.41%
O=C(Cn1cc(C(F)(F)F)ccc1=O)N/N=C/c1ccccc1O | -7.65%
CC(=NCCCN1CCCCC1)c1c(O)n(Cc2ccccc2)c(=O)[nH]c1=O | -48.4%
O=c1c2ccc([N+](=O)[O-])c3cccc(c32)c2nc3ccccc3n12 | 21.1%
CCCCn1c(=O)c(C(=O)Nc2ccccc2F)c(O)c2ccccc21 | 22.6%

Structure (SMILES) | hERG current change (%, negative = inhibition) at 10uM
CCOc1ccc(S(=O)(=O)NCCC(=O)N2CCN(Cc3ccccc3)CC2)cc1 | -54.2%
COc1cccc(C(=O)OCc2ccccc2C#N)c1O | 10%
O=C(Nc1cccc(C(F)(F)F)c1)C1C2CC3OC(=O)C1C3C2 (centres unmarked) | -7.31%
O=C1OC(c2ccccc2)=C/C1=C/N1CCCCC1 | -18.7%
N#Cc1ccccc1OCC(=O)Nc1nnc(C2CC2)s1 | 0.922%
COCCN(C(=O)CCC(=O)Nc1cc(C)on1)C(C(=O)NC1CCCC1)c1ccc(C)cc1 (centres unmarked) | -6.8%
CCC(C)NC(=O)CSc1nnc(-c2cc(-c3ccc(C)cc3)nc3ccccc23)n1N (centres unmarked) | 17.1%
Cc1cccc(C(=O)OCC(=O)c2c(C)[nH]c3ccccc23)c1O | 9.38%
C=CCn1c(SCc2ccc(F)cc2)nc2c1c(=O)[nH]c(=O)n2C | -18%
CCN1CCN(CCn2c(=S)[nH]c3cc4c(cc3c2=O)OCO4)CC1 | 13%
O=C1NC(c2ccccc2O)Nc2ccccc21 (centres unmarked) | 15%
CCOC(=O)C[C@H]1c2cc(C(F)(F)F)ccc2S(=O)(=O)N1C(C)C | -17.5%
COc1ccc(S(=O)(=O)Nc2c(NC3CCCCC3)c3ccccc3oc2=O)cc1OC | -6.99%
O=C(CSc1ccc2nnc(CCNC(=O)c3ccc(F)cc3)n2n1)NCC1CCCO1 (centres unmarked) | 12%
CCOC(=O)c1sc(N)nc1-c1ccccc1 | -6.84%
O=S(=O)(Nc1cccc2c1ccc1cccn12)c1cccs1 | -8.8%
O=C(COC(=O)c1ccc(O)cc1)NC1CCCCCC1 | 7.22%
CC(=O)Nc1ccc(S(=O)(=O)NNC(=O)COc2ccc(Cl)cc2Cl)cc1 | 16.3%
CCOCCN1CCC(OC(C)=O)C(C)C1.Cl (centres unmarked) | 16.2%
Cc1ccc2nc(SCC(=O)Nc3ccc(Cl)cc3)nc(=O)n2c1 | -15.4%
CSc1ccc(C2CC(=O)Nc3c2c(=O)n(C)c(=O)n3C)cc1 (centres unmarked) | 9.46%
Cc1c(C(=O)N2CCN(S(C)(=O)=O)CC2)oc2ccccc12 | 3.49%
COc1ccc(/C=N/NC(=O)COc2ccc3ccccc3c2)c(C(=O)O)c1OC | -0.793%

Structure (SMILES) | hERG current change (%, negative = inhibition) at 10uM
O=C(O)CCN1C(=O)/C(=C\c2cccc(Oc3ccccc3)c2)SC1=S | 26.2%
O=C1NC2(CCCCCC2)C(=O)N1Cc1ccc([N+](=O)[O-])cc1 | -17.5%
CC(C)(C)NC(=O)CN(C(=O)CCC(=O)Nc1nccs1)c1ccc2c(c1)OCCO2 | 14.7%
COc1ccc(-n2c(NC(=O)c3ccco3)c(C#N)c3nc4ccccc4nc32)cc1 | 5.18%
Cc1ccc(/C=N/NC(=O)CN(Cc2ccccc2)S(=O)(=O)c2ccc3c(c2)OCCO3)cc1 | 15.9%
CCNC(=O)c1ccccc1CCc1ccccc1 | 13.6%
CC(=O)c1ccc(NC(=O)c2ccc3c(c2)C(=O)N(c2ccccn2)C3=O)cc1 | 15.2%
c1ccc(N/N=C(\Cc2ncc[nH]2)c2ccccc2)cc1 | -2.34%
NS(=O)(=O)c1cccc(NC(=O)COc2ncnc3c2cnn3-c2ccccc2)c1 | 6.09%
CCCCC(NC(C)=O)c1nc2ccccc2n1CCC (centres unmarked) | -11.8%
Cc1ccc(S(=O)(=O)n2nc(OC(=O)C(C)(C)C)cc2N)cc1 | 2.38%
O=C(NCCCN1CCCC1=O)c1cc2c(s1)CCCCC2 | -4.09%
COc1ccc(N2CC(C)Cn3c2nc2c3c(=O)n(CCN3CCOCC3)c(=O)n2C)cc1 (centres unmarked) | -3.02%
CC1CCC(NC(=O)COC(=O)CNC(=O)c2ccc3ccccc3c2)CC1 (centres unmarked) | 6.67%
C=CCNCC#CCOc1ccc(OC)cc1.O=C(O)C(=O)O | -11%
COc1ccc(NC(=O)CC2C(=O)N(c3ccc(F)cc3)C(=S)N2NC(=O)c2ccc(Cl)cc2)cc1 (centres unmarked) | -5.33%
CCOc1cccc(CNn2cnnc2)c1OCc1ccccc1Cl | -17.3%
Cc1ccc(S(=O)(=O)N2CCN(C(=O)Cc3sc(C)nc3-c3ccc(F)cc3)CC2)c(C)c1 | -17.4%
O=c1nc(Nc2ccc(Br)cc2)sc2ccc([N+](=O)[O-])cc12 | 18.6%
O=C(NC(=S)NN1CCCCC1c1cccnc1)c1ccc(Br)cc1 (centres unmarked) | -26.5%
COc1ccc(N2C(=O)CC(Cc3ccc(Br)cc3)C2=O)cc1 (centres unmarked) | 2.75%
CCNC(=S)N/N=C(\C)c1ccc2c(c1)OCCO2 | 13.4%
CCOC(=O)c1cc2c(nc1N)CC(C)(C)OC2.Cl | 11.7%

Structure (SMILES) | hERG current change (%, negative = inhibition) at 10uM
O=C(NCc1ccccc1Cl)C1CCN(c2cnccn2)CC1 | -4.12%
COc1cc(NC(=O)c2cc3c(Cl)nc4ccccc4c3s2)cc(OC)c1OC | 19.2%
CN(C)S(=O)(=O)c1ccc(S(=O)(=O)Nc2ccc3c(c2)oc2ccccc23)cc1 | 3.48%
COc1ccc(C(=O)NCc2nnc(SCC(=O)NC3CCCC3)o2)cc1 | 17.7%
COc1ccc(S(=O)(=O)CCC(=O)NCCc2ccc(S(N)(=O)=O)cc2)cc1 | 13.8%
CC(C)(C)Nc1nc(-c2ccccn2)nc2ccccc12 | -69.8%
CCn1c(SCC(=O)NCC2CCCO2)nnc1-c1c[nH]c2ccccc12 (centres unmarked) | 0.121%
CC1(C)CC(N=Cc2c(O)n(Cc3ccc4c(c3)OCO4)c(=O)c3ccccc23)CC(C)(C)N1 | 2%
COc1ccccc1OCCNC(=O)c1cc([N+](=O)[O-])cc([N+](=O)[O-])c1 | 12.2%
CCOC(=O)c1ccc2[nH]c3c(c2c1)CCCC3O (centres unmarked) | 3.1%
Cc1ccc(/C=N/n2nnnc2N)cc1 | -0.446%
CCOC(=O)C1CCCN(S(=O)(=O)CCNC(=O)c2ccc3c(c2)OCO3)C1 (centres unmarked) | 7.92%
Cc1ccc2nc(NC(=O)CCCc3nc4ccccc4s3)sc2c1 | -8.68%
Cc1ccc2nc(CSc3nc(C)ccc3C#N)[nH]c2c1 | 7.61%
CCN(CC)S(=O)(=O)c1ccc(OC)c(NC(=O)c2ccc(-n3cncn3)c([N+](=O)[O-])c2)c1 | 13.6%
CCCc1cc(=O)[nH]c(SCC(=O)NCC2COc3ccccc3O2)n1 (centres unmarked) | -13.2%
Cc1ccc(N(CC(O)COCc2ccco2)S(=O)(=O)c2ccc(C)cc2)cc1 (centres unmarked) | -11.1%
COc1ccccc1CNC(=O)C(=O)NCCC1CCCCN1S(=O)(=O)c1ccc(C)cc1 (centres unmarked) | -18.7%
COc1ccc(NC(=S)N2CCN(C(=O)c3ccco3)CC2)cc1 | -6.29%
Cc1cccc(N2C(=O)SC(N(CC(=O)O)c3cccc(C)c3)C2=O)c1 (centres unmarked) | 21.2%

From article PMC4336329 (PLoS ONE, 2015)
